# The supplement of paper PMC8728848
# This is one part of the list.
# Assays:
# Assay in all cases: glycan array binding signal (z-score within array); higher = stronger binding
# Settings in all cases: glycan notation: IUPAC condensed, linker removed
# [1] = target: GlcNAc(b1-3)Gal(b1-4)GlcNAc(b1-3)GalNAc
# Method in brief: (§1)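 Glycan array data were curated from 3228 arrays in the Consortium for Functional Glycomics database and kept only where the protein sequence was available. Glycan names were converted to IUPAC-condensed notation, and columns mapping to the same glycan were averaged. The binding signal is a within-array Z-score, averaged across arrays of the same protein sequence at different concentrations or buffers and across linkers. Negative Z-scores can be read as non-binding.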
# [2] = target: GlcNAc(b1-3)Gal(b1-4)GlcNAc(b1-3)[GlcNAc(b1-3)Gal(b1-4)GlcNAc(b1-3)]GalNAc
# Method in brief: as §1
# [3] = target: GlcNAc(b1-3)Gal(b1-4)GlcNAc(b1-6)[Gal(b1-3)]GalNAc
# Method in brief: as §1
# [4] = target: GlcNAc(b1-3)Gal(b1-4)GlcNAc(b1-6)[GlcNAc(b1-3)Gal(b1-3)]GalNAc
# Method in brief: as §1
# [5] = target: GlcNAc(b1-3)Gal(b1-4)GlcNAc(b1-6)[GlcNAc(b1-3)]Gal(b1-4)GlcNAc
# Method in brief: as §1
# [6] = target: GlcNAc(b1-3)GalNAc
# Method in brief: as §1
# [7] = target: GlcNAc(b1-3)Man
# Method in brief: as §1
# [8] = target: GlcNAc(b1-3)[GlcNAc(b1-4)][GlcNAc(b1-6)]GlcNAc
# Method in brief: as §1
# [9] = target: GlcNAc(b1-3)[GlcNAc(b1-6)]Gal(b1-4)GlcNAc
# Method in brief: as §1
# [10] = target: GlcNAc(b1-3)[GlcNAc(b1-6)]GalNAc
# Method in brief: as §1
# [11] = target: GlcNAc(b1-4)Gal(b1-4)GlcNAc
# Method in brief: as §1
# [12] = target: GlcNAc(b1-4)GlcNAc
# Method in brief: as §1
# [13] = target: GlcNAc(b1-4)GlcNAc(b1-4)GlcNAc
# Method in brief: as §1
# [14] = target: GlcNAc(b1-4)GlcNAc(b1-4)GlcNAc(b1-4)GlcNAc(b1-4)GlcNAc
# Method in brief: as §1
# [15] = target: GlcNAc(b1-4)GlcNAc(b1-4)GlcNAc(b1-4)GlcNAc(b1-4)GlcNAc(b1-4)GlcNAc
# Method in brief: as §1
# [16] = target: GlcNAc(b1-4)[GlcNAc(b1-6)]GalNAc
# Method in brief: as §1
# [17] = target: GlcNAc(b1-6)Gal(b1-4)GlcNAc
# Method in brief: as §1
# [18] = target: GlcNAc(b1-6)GalNAc
# Method in brief: as §1
# [19] = target: GlcNAc6S(b1-3)Gal(b1-4)GlcNAc
# Method in brief: as §1
# [20] = target: Kdn(a2-3)Gal(b1-3)GalNAc
# Method in brief: as §1
# [21] = target: Kdn(a2-3)Gal(b1-3)GlcNAc
# Method in brief: as §1
# [22] = target: Kdn(a2-3)Gal(b1-4)Glc
# Method in brief: as §1
# [23] = target: Kdn(a2-3)Gal(b1-4)GlcNAc
# Method in brief: as §1
# [24] = target: Kdn(a2-3)Gal(b1-4)[Fuc(a1-3)]GlcNAc
# Method in brief: as §1
# [25] = target: Kdn(a2-6)Gal(b1-4)GlcNAc
# Method in brief: as §1
# [26] = target: Man(a1-2)Man(a1-2)Man(a1-3)Man
# Method in brief: as §1
# [27] = target: Man(a1-2)Man(a1-2)Man(a1-6)[Man(a1-3)]Man
# Method in brief: as §1
# [28] = target: Man(a1-2)Man(a1-3)Man
# Method in brief: as §1
# [29] = target: Man(a1-2)Man(a1-3)[Man(a1-2)Man(a1-6)]Man
# Method in brief: as §1
# [30] = target: Man(a1-2)Man(a1-3)[Man(a1-2)Man(a1-6)]Man(a1-6)[Man(a1-2)Man(a1-2)Man(a1-3)]Man
# Method in brief: as §1
# [31] = target: Man(a1-2)Man(a1-3)[Man(a1-2)Man(a1-6)]Man(a1-6)[Man(a1-2)Man(a1-2)Man(a1-3)]Man(b1-4)GlcNAc(b1-4)GlcNAc
# Method in brief: as §1
# [32] = target: Man(a1-2)Man(a1-3)[Man(a1-6)]Man(a1-6)[Man(a1-2)Man(a1-3)]Man(b1-4)GlcNAc(b1-4)GlcNAc
# Method in brief: as §1
# [33] = target: Man(a1-2)Man(a1-6)[Man(a1-3)]Man(a1-6)[Man(a1-2)Man(a1-2)Man(a1-3)]Man
# Method in brief: as §1
# [34] = target: Man(a1-2)Man(a1-6)[Man(a1-3)]Man(a1-6)[Man(a1-2)Man(a1-2)Man(a1-3)]Man(b1-4)GlcNAc(b1-4)GlcNAc
# Method in brief: as §1
# [35] = target: Man(a1-3)[Man(a1-6)]Man
# Method in brief: as §1
# [36] = target: Man(a1-3)[Man(a1-6)]Man(a1-6)[Man(a1-2)Man(a1-3)]Man(b1-4)GlcNAc(b1-4)GlcNAc
# Method in brief: as §1
# [37] = target: Man(a1-3)[Man(a1-6)]Man(a1-6)[Man(a1-3)]Man
# Method in brief: as §1
# [38] = target: Man(a1-3)[Man(a1-6)]Man(a1-6)[Man(a1-3)]Man(b1-4)GlcNAc(b1-4)GlcNAc
# Method in brief: as §1
# [39] = target: Man(a1-3)[Man(a1-6)]Man(b1-4)GlcNAc(b1-4)GlcNAc
# Method in brief: as §1
# [40] = target: Man(a1-3)[Man(a1-6)]Man(b1-4)GlcNAc(b1-4)[Fuc(a1-6)]GlcNAc
# Method in brief: as §1
# [41] = target: Man(a1-6)Man
# Method in brief: as §1
# [42] = target: Man(b1-4)GlcNAc
# Method in brief: as §1
# [43] = target: MurNAc(b1-4)GlcNAc
# Method in brief: as §1
# [44] = target: Neu5Ac(a2-3)Gal
# Method in brief: as §1
# [45] = target: Neu5Ac(a2-3)Gal(b1-3)GalNAc
# Method in brief: as §1
# [46] = target: Neu5Ac(a2-3)Gal(b1-3)GalNAc(b1-3)Gal(a1-4)Gal(b1-4)Glc
# Method in brief: as §1
# [47] = target: Neu5Ac(a2-3)Gal(b1-3)GalNAc(b1-4)[Neu5Ac(a2-3)]Gal(b1-4)Glc
# Method in brief: as §1
# [48] = target: Neu5Ac(a2-3)Gal(b1-3)GalNAc(b1-4)[Neu5Ac(a2-8)Neu5Ac(a2-3)]Gal(b1-4)Glc
# Method in brief: as §1
# [49] = target: Neu5Ac(a2-3)Gal(b1-3)GalNAc6S
# Method in brief: as §1
# [50] = target: Neu5Ac(a2-3)Gal(b1-3)GlcNAc
# Method in brief: as §1
# [51] = target: Neu5Ac(a2-3)Gal(b1-3)GlcNAc(b1-2)Man
# Method in brief: as §1
# [52] = target: Neu5Ac(a2-3)Gal(b1-3)GlcNAc(b1-2)Man(a1-3)[GlcNAc(b1-4)][Neu5Ac(a2-3)Gal(b1-3)GlcNAc(b1-2)Man(a1-6)]Man(b1-4)GlcNAc(b1-4)GlcNAc
# Method in brief: as §1
# [53] = target: Neu5Ac(a2-3)Gal(b1-3)GlcNAc(b1-2)Man(a1-3)[Neu5Ac(a2-3)Gal(b1-3)GlcNAc(b1-2)Man(a1-6)]Man(b1-4)GlcNAc(b1-4)GlcNAc
# Method in brief: as §1
# [54] = target: Neu5Ac(a2-3)Gal(b1-3)GlcNAc(b1-3)Gal(b1-3)GlcNAc
# Method in brief: as §1
# [55] = target: Neu5Ac(a2-3)Gal(b1-3)GlcNAc(b1-3)Gal(b1-4)GlcNAc
# Method in brief: as §1
# [56] = target: Neu5Ac(a2-3)Gal(b1-3)GlcNAc(b1-3)GalNAc
# Method in brief: as §1
# [57] = target: Neu5Ac(a2-3)Gal(b1-3)GlcNAc(b1-4)Gal(b1-4)Glc
# Method in brief: as §1
# [58] = target: Neu5Ac(a2-3)Gal(b1-3)GlcNAc(b1-6)GalNAc
# Method in brief: as §1
# [59] = target: Neu5Ac(a2-3)Gal(b1-3)GlcNAc6S
# Method in brief: as §1
# [60] = target: Neu5Ac(a2-3)Gal(b1-3)[Fuc(a1-4)]GlcNAc
# Method in brief: as §1
binder,measurement,setting,value
Pbx2 (Cryptococcus neoformans) (protein) AVSPLPSSTELVFYSQKRRRRRICSTATGSLSTPDPTRMTSDPYKRVGMRFSSVPRLLITFLSLLLLVSAAPPCVRFADYDSINQMFIDGGPGTKVLLCPNRLYRLSGPIIFTAADQEIATYGYPTGSERAVLRVEGRNTATAIQGDCRRCARVSVKNLVVDGNRKKLGRMRDFQLATGLVVLGGNEGQSIQNSWIKNPRGFTAIHIREGDKLQCSGARVEKNEIGPVGEEYDPEKDGDDPEMSPLGRPLADGVSIACRDSFIRDNTFRDNTDAAIVVYCSPGTLIHANHIFAQSLSAMAGILMVDSTPFNGDYTGTVVRSNIIDAVSRTIRVGIGIGPTVWSDDTETILTGGSVIGNGLKGRYMGYGIAAAGLKQWTIKDNWDEAKHEGRKSARCFDEPVNPDPIGLLYNRPTMEDCTVQSGFADHDFQYLVCIDGLYDKTNPPKHDPAPLAHDPSPTNAQEDNTVQQDGGDSKSKSIEQPREASDIEAEPSVEKMFSTGSEMMDDVLEHSHQRMHEVIDHLSRRIDILGAASAGKGSGDSKISEVLDPAMSSHLEKLQRKIEHLEFSLRSQIETAIQLRSAIQGWDQEMALVTDWEYDILLDVRHKLELSSYPHDQPLDPRLMRGQSYLNNEAVLVDDHSHPSLEGENLRAMSDRARLNANEEA,glycan array binding signal (z-score),[1],-0.709
same,glycan array binding signal (z-score),[2],-0.643
same,glycan array binding signal (z-score),[3],-0.249
same,glycan array binding signal (z-score),[4],-0.096
same,glycan array binding signal (z-score),[5],-0.05
same,glycan array binding signal (z-score),[6],-0.396
same,glycan array binding signal (z-score),[7],0.03
same,glycan array binding signal (z-score),[8],-0.476
same,glycan array binding signal (z-score),[9],-0.35
same,glycan array binding signal (z-score),[10],-0.416
same,glycan array binding signal (z-score),[11],-0.557
same,glycan array binding signal (z-score),[12],-0.445
same,glycan array binding signal (z-score),[13],-0.147
same,glycan array binding signal (z-score),[14],0.362
same,glycan array binding signal (z-score),[15],-0.054
same,glycan array binding signal (z-score),[16],-0.648
same,glycan array binding signal (z-score),[17],-0.551
same,glycan array binding signal (z-score),[18],-0.251
same,glycan array binding signal (z-score),[19],-0.104
same,glycan array binding signal (z-score),[20],-0.435
same,glycan array binding signal (z-score),[21],-0.211
same,glycan array binding signal (z-score),[22],0.08
same,glycan array binding signal (z-score),[23],-0.613
same,glycan array binding signal (z-score),[24],-0.169
same,glycan array binding signal (z-score),[25],-0.348
same,glycan array binding signal (z-score),[26],-0.572
same,glycan array binding signal (z-score),[27],-0.287
same,glycan array binding signal (z-score),[28],-0.508
same,glycan array binding signal (z-score),[29],-0.442
same,glycan array binding signal (z-score),[30],-0.111
same,glycan array binding signal (z-score),[31],0.647
same,glycan array binding signal (z-score),[32],-0.065
same,glycan array binding signal (z-score),[33],-0.127
same,glycan array binding signal (z-score),[34],0.275
same,glycan array binding signal (z-score),[35],-0.245
same,glycan array binding signal (z-score),[36],-0.295
same,glycan array binding signal (z-score),[37],-0.272
same,glycan array binding signal (z-score),[38],-0.311
same,glycan array binding signal (z-score),[39],-0.346
same,glycan array binding signal (z-score),[40],-0.483
same,glycan array binding signal (z-score),[41],-0.516
same,glycan array binding signal (z-score),[42],-0.543
same,glycan array binding signal (z-score),[43],-0.207
same,glycan array binding signal (z-score),[44],-0.406
same,glycan array binding signal (z-score),[45],-0.047
same,glycan array binding signal (z-score),[46],-0.324
same,glycan array binding signal (z-score),[47],-0.064
same,glycan array binding signal (z-score),[48],0.088
same,glycan array binding signal (z-score),[49],-0.335
same,glycan array binding signal (z-score),[50],-0.585
same,glycan array binding signal (z-score),[51],1.16
same,glycan array binding signal (z-score),[52],0.343
same,glycan array binding signal (z-score),[53],2.41
same,glycan array binding signal (z-score),[54],-0.518
same,glycan array binding signal (z-score),[55],-0.071
same,glycan array binding signal (z-score),[56],-0.35
same,glycan array binding signal (z-score),[57],0.372
same,glycan array binding signal (z-score),[58],-0.532
same,glycan array binding signal (z-score),[59],-0.196
same,glycan array binding signal (z-score),[60],-0.525
